The values below come from PubChem BioAssay AID1745853 (National Center for Advancing Translational Sciences (NCATS), 2022).

The list shows a part of the results. The main result of the screen is listed elsewhere. These columns were measured beside it and carry no call.

What all share (experiment): Primary Screen for Target Class Profiling of Small Molecule Inhibitors of Methyltransferases
The target in experiment [1] is Glycine N-methyltransferase (Homo sapiens) (UniProt Q14749). The settings on record: purified enzyme, MTase-Glo SAH luminescence; measured here: GNMT inhibition; at 40 µM; stronger effect = lower value. The procedure, abridged:
(§1)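 Each enzyme was assayed with SAM and its substrate. SAH formation detected by MTase-Glo luminescence; single-point 40 uM screen[…].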

For experiment [2], the target named is Guanidinoacetate N-methyltransferase (Homo sapiens) (UniProt Q14353). The settings on record: purified enzyme, MTase-Glo SAH luminescence; measured here: GAMT inhibition; at 40 µM; stronger effect = lower value. The procedure, abridged: as §1
Experiment [3] concerns the target Histamine N-methyltransferase (Homo sapiens) (UniProt P50135). The settings on record: purified enzyme, MTase-Glo SAH luminescence; measured here: HNMT inhibition; at 40 µM; stronger effect = lower value. The procedure, abridged:
as §1

The target in experiment [4] is Nicotinamide N-methyltransferase (Homo sapiens) (UniProt P40261). The settings on record: purified enzyme, MTase-Glo SAH luminescence; measured here: NNMT inhibition; at 40 µM; stronger effect = lower value. In short, it runs like this: as §1
In experiment [5] the target is Phenylethanolamine N-methyltransferase (Homo sapiens) (UniProt P11086). The settings on record: purified enzyme, MTase-Glo SAH luminescence; measured here: PNMT inhibition; at 40 µM; stronger effect = lower value. The procedure, abridged:
as §1
On the % scale 0 is the no-effect control and ±100 the full control effect.

Take `CN1CCCn2nc(C(=O)N(C)Cc3nc4ccc(Cl)cc4[nH]3)cc2C1`: the activity change, negative = inhibition is -1.35% in experiment [1]; 1.18% in experiment [2]; -1.06% in experiment [3]; -1.46% in experiment [4]; 2.87% in experiment [5].

On to `COc1ccc(CCCN2CCC(COC(c3ccccc3)c3ccccc3)CC2)cc1`, for which the activity change, negative = inhibition in experiment [1] is 5.87%; in experiment [2], 11%; in experiment [3], 5.42%; in experiment [4] it was -22%; in experiment [5] it was 1.58%.

As to `CC(C)C(=O)N1CCC(c2nc(-c3cccnn3)no2)CC1`, the activity change, negative = inhibition was -2.23% in experiment [1]; -4.99% in experiment [2]; 3.64% in experiment [3]; 0.996% in experiment [4]; 0.845% in experiment [5].

In the case of `O=C(O)/C=C/c1ccc2occc2c1O[C@@H]1O[C@H](CO)[C@@H](O)[C@H](O)[C@H]1O`, the activity change, negative = inhibition in experiment [1] is 3.72%; in experiment [2], 8.37%; in experiment [3], 9.62%; in experiment [4] it was -1.72%; in experiment [5], 5.74%.

Turning to `CS(=O)(=O)N1CCC2(CC1)CN(C(=O)c1ccc(N)nc1)Cc1ccccc1O2`, the activity change, negative = inhibition in experiment [1] was -5.59%; in experiment [2], -3.84%; in experiment [3], -7.93%; in experiment [4], -11.6%; in experiment [5], -4.37%.

As for `CC1(C(=O)NC2CCCC2)Cn2cnc(C(=O)NCc3cccc(Cl)c3)c2C(=O)N1C1CC1` (stereo not given), the activity change, negative = inhibition was 0.696% in experiment [1]; 0% in experiment [2]; 7.75% in experiment [3]; -5.54% in experiment [4]; 2.42% in experiment [5].

On to `CCC1c2ccc(C)n2CCN1C(=O)Nc1ccc(F)c(Cl)c1` (stereo not given), for which the activity change, negative = inhibition in experiment [1] is -0.31%; in experiment [2] it was 0%; in experiment [3], 1.58%; in experiment [4], -4.11%; in experiment [5], -2.35%.

Take `Cc1cc2c(cc3n2CC(C)(C(=O)NC2CCCCCCC2)N(Cc2ccccn2)C3=O)o1` (stereo not given): the activity change, negative = inhibition in experiment [1] was -2.49%; in experiment [2], 5.09%; in experiment [3], 4.83%; in experiment [4], -6.61%; in experiment [5] it was 0.337%.

In the case of `C[C@]1(OC(=O)/C=C/c2ccc(O)cc2)C[C@@H](O)[C@]2(O)C=CO[C@@H](O[C@@H]3O[C@H](CO)[C@@H](O)[C@H](O)[C@H]3O)C12` (stereo not given in full), the activity change, negative = inhibition in experiment [1] was -1.67%; in experiment [2], -4.51%; in experiment [3], 7.2%; in experiment [4], -17.7%; in experiment [5] it was 1.81%.

Take `CC(C)NC[C@H](O)COc1cccc2ccccc12`: the activity change, negative = inhibition in experiment [1] is -3.5%; in experiment [2], 3.15%; in experiment [3], -14.1%; in experiment [4], -9.06%; in experiment [5], 1.51%.

With `CC1CCCCC1NC(=O)C1(C)Cn2c(cc3sccc32)C(=O)N1Cc1ccco1` (stereo not given), the activity change, negative = inhibition was -1.28% in experiment [1]; 0.443% in experiment [2]; 0.272% in experiment [3]; -0.602% in experiment [4]; 1.04% in experiment [5].

As to `CCC1Oc2ccc(NC(=O)c3ccccc3OC(C)=O)cc2CN(Cc2ccccc2F)C1=O` (stereo not given), the activity change, negative = inhibition in experiment [1] was -6.16%; in experiment [2], -6.2%; in experiment [3] it was -6.91%; in experiment [4], -6.35%; in experiment [5], -7.02%.

Turning to `C[C@H]1O[C@@H](n2cc(F)c(=O)[nH]c2=O)[C@H](O)[C@@H]1O`, the activity change, negative = inhibition was -3.22% in experiment [1]; 8.19% in experiment [2]; 0.45% in experiment [3]; 1.05% in experiment [4]; 8.88% in experiment [5].

For `Cc1nc(NCC2(c3ccccc3)CCOCC2)cc(C2CC(O)C2)n1` (stereo not given), the activity change, negative = inhibition was -1.34% in experiment [1]; -4.05% in experiment [2]; -2.17% in experiment [3]; -2.24% in experiment [4]; -3.13% in experiment [5].

As to `Cc1ccc2nc(Nc3ccc4[nH]c(=O)[nH]c4c3)c(-n3nc(C)cc3C)nc2c1`, the activity change, negative = inhibition in experiment [1] was -7.43%; in experiment [2], 0.39%; in experiment [3], 2.57%; in experiment [4], 3.29%; in experiment [5] it was -3.15%.

`CC(C)(C)c1nc(-c2cccc(NS(=O)(=O)c3c(F)cccc3F)c2F)c(-c2ccnc(N)n2)s1`: the activity change, negative = inhibition in experiment [1] is -7.69%; in experiment [2], -0.548%; in experiment [3] it was -2.67%; in experiment [4], -20.2%; in experiment [5], -8.09%.

Turning to `Cc1[nH]nc2c1C(c1c(F)cccc1F)C(C#N)=C(N)O2` (stereo not given), the activity change, negative = inhibition is -8.5% in experiment [1]; 2.09% in experiment [2]; -7.41% in experiment [3]; -10.1% in experiment [4]; 6.29% in experiment [5].

On to `COc1ccnc(-c2nnc3ccc(Nc4cc(OC)c(OC)c(OC)c4)nn23)c1`, for which the activity change, negative = inhibition was -34.7% in experiment [1]; -29.7% in experiment [2]; -54.4% in experiment [3]; -36.4% in experiment [4]; -17% in experiment [5].

In the case of `CNCCN1C(=O)CC[C@H]2CN(Cc3cc(C4CCCCC4)no3)CC[C@H]21`, the activity change, negative = inhibition in experiment [1] was -2.22%; in experiment [2], -4.3%; in experiment [3] it was -2.99%; in experiment [4], -8.97%; in experiment [5] it was -2.79%.

For the compound `O=[N+]([O-])c1nccn1CO[C@@H](CO)[C@H](O)CO`, the activity change, negative = inhibition in experiment [1] is 3.85%; in experiment [2] it was 8.96%; in experiment [3], 8.59%; in experiment [4], -4.3%; in experiment [5], 4.49%.

As to `CCC(C)NC(=O)c1ccc2c(=O)n(C3CC3)c3nn(CC(=O)NC(C)C)c(=O)n3c2c1` (stereo not given), the activity change, negative = inhibition in experiment [1] was found to be 4.96%; in experiment [2] it was 0.419%; in experiment [3] it was 5.33%; in experiment [4], 3.92%; in experiment [5], 5.39%.

Take `CN1C(=O)c2cc(C(=O)NCc3ccccc3F)nn2CC1(C)C(=O)NC1CCCC1` (stereo not given): the activity change, negative = inhibition was 1.12% in experiment [1]; -7.25% in experiment [2]; 4.8% in experiment [3]; -1.34% in experiment [4]; -3.12% in experiment [5].

For the compound `Cc1cccc(CNC(=O)CCn2ccc3cc(S(=O)(=O)N4CCCCC4)ccc32)c1`, the activity change, negative = inhibition worked out at 6.24% in experiment [1]; 0.708% in experiment [2]; 7.42% in experiment [3]; 6.55% in experiment [4]; 3.77% in experiment [5].

On to `C=Cc1ccc(Cn2nc3n(CC(C)C)c(=O)c4ccc(C(=O)NC5CCCC5)cc4n3c2=O)cc1`, for which the activity change, negative = inhibition was determined as 4.58% in experiment [1]; 1.54% in experiment [2]; 7.91% in experiment [3]; 7.33% in experiment [4]; 7.11% in experiment [5].

In the case of `O=C1CCN(C(=O)c2ccco2)CCCC(C(=O)NCc2ccccc2)CCN1` (stereo not given), the activity change, negative = inhibition in experiment [1] came out at 3.12%; in experiment [2] it was 2.91%; in experiment [3], 1.89%; in experiment [4] it was 4.58%; in experiment [5], 5.19%.

On to `Cc1c(C(=O)Nc2ccc(N3CCC(N4CCOCC4)CC3)c(C#N)c2)cnn1-c1ccc(Cl)cc1`, for which the activity change, negative = inhibition in experiment [1] was -8.81%; in experiment [2], 1.29%; in experiment [3] it was -6.41%; in experiment [4], -9.34%; in experiment [5], -2.32%.

For the compound `CC(=O)N1CCCN(Cc2nnc(C(=O)N3CCC[C@@H]3C(c3ccccc3)c3ccccc3)n2-c2ccccc2)CC1`, the activity change, negative = inhibition was -8.33% in experiment [1]; -1.84% in experiment [2]; -3.35% in experiment [3]; -29% in experiment [4]; 8.66% in experiment [5].

In the case of `O=C(c1ccccc1)N1CCC2(CC1)C(=O)NN=C2C1CC1`, the activity change, negative = inhibition in experiment [1] is -4.49%; in experiment [2] it was -8.38%; in experiment [3] it was -3.91%; in experiment [4], -11.1%; in experiment [5], -9.16%.

As to `CC(C)CNC(=O)C1CCCN(c2ccnc3ccnn23)C1` (stereo not given), the activity change, negative = inhibition was -0.665% in experiment [1]; 2.64% in experiment [2]; -9.74% in experiment [3]; -4.79% in experiment [4]; -3.21% in experiment [5].

Turning to `CCOc1ccc(CN2C(=O)c3cc4oc(C)cc4n3CC2(C)C(=O)NC2CCCCCC2)cc1` (stereo not given), the activity change, negative = inhibition is -6.65% in experiment [1]; 0% in experiment [2]; -4.39% in experiment [3]; -7.51% in experiment [4]; -2.65% in experiment [5].
